The other results are listed elsewhere or left out. Repeats are few or missing, and single values can be far off.
What was measured:
Assay in all cases: cell count relative to DMSO control; melanoma cells; higher = more viable cells
Settings in all cases: library dose: standard library concentration; 72 h
A101D = test system: A101D
A2058 = test system: A2058
A375 = test system: A375
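Further: cells treated in 1,536-well plates, then fixed and DAPI-stained, with nuclei counted from automated high-throughput microscope images.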

| SMILES | cell count (A101D) [%] | cell count (A2058) [%] | cell count (A375) [%] |
| --- | --- | --- | --- |
| C[C@]1(O)C[C@@H](c2nc(-c3ccc4ccc(-c5ccccc5)nc4c3)c3c(N)nccn32)C1 + CN(C)S(=O)(=O)c1ccc2c(c1)/C(=C/c1cc3c([nH]1)CCCC3)C(=O)N2 [SU6656] (first compound 2 µM, partner dose 2 µM) | 70 | 68.4 | 97.1 |
| Cn1cnc2c(F)c(Nc3ccc(Br)cc3Cl)c(C(=O)NOCCO)cc21 [selumetinib] + NC1(c2ccc(-c3nc4ccn5c(=O)[nH]nc5c4cc3-c3ccccc3)cc2)CCC1 [MK2206] (first compound 0.075 µM, partner dose 2 µM) | 50.6 | 60.5 | 86.4 |
| C[C@]1(O)C[C@@H](c2nc(-c3ccc4ccc(-c5ccccc5)nc4c3)c3c(N)nccn32)C1 + CNC(=O)c1cc(Oc2ccc(NC(=O)Nc3ccc(Cl)c(C(F)(F)F)c3)cc2)ccn1 [sorafenib] (first compound 2 µM, partner dose 2 µM) | 86.8 | 105 | 115 |
| CCN(CC)CCNC(=O)c1c(C)[nH]c(/C=C2\C(=O)Nc3ccc(F)cc32)c1C [sunitinib] + CS(=O)(=O)CCNCc1ccc(-c2ccc3ncnc(Nc4ccc(OCc5cccc(F)c5)c(Cl)c4)c3c2)o1 [lapatinib] (first compound 2 µM, partner dose 4 µM) | 37.4 | 43.9 | 129 |
| CCN(CC)CCNC(=O)c1c(C)[nH]c(/C=C2\C(=O)Nc3ccc(F)cc32)c1C [sunitinib] + CC(=O)c1c(C)c2cnc(Nc3ccc(N4CCNCC4)cn3)nc2n(C2CCCC2)c1=O [palbociclib] (first compound 2 µM, partner dose 0.2 µM) | 68.5 | 84.3 | 78.3 |
| Cn1cnc2c(F)c(Nc3ccc(Br)cc3Cl)c(C(=O)NOCCO)cc21 [selumetinib] + Clc1ccc(Nc2nnc(Cc3ccncc3)c3ccccc23)cc1 [vatalanib] (first compound 0.075 µM, partner dose 10 µM) | 85.5 | 72.5 | 92.7 |

— the supplement of paper PMC4604168 (melanoma cell lines)
